# In publication PMC12820563, “FoxP3 forms a head-to-head dimer in vivo and stabilizes its multimerization on adjacent microsatellites”:
# This is one part of the list.
# Target: T1, MBP-FoxP1dN (Mus musculus, UniProt P58462 326-579)
# T1 sequence: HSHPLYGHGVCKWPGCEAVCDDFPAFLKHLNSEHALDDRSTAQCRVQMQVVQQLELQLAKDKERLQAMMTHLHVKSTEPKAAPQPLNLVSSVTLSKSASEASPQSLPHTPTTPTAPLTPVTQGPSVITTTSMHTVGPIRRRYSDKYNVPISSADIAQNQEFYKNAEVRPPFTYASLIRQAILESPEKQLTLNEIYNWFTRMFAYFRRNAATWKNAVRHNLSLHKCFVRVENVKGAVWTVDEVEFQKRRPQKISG
# Experiment: PD-seq (MBP pull-down with sequencing); 20 mM Tris-HCl pH 7.5, 100 mM NaCl, 1.5 mM MgCl2, 0.4 uM protein, 0.1 uM dsDNA library, 30 min, room temperature, amylose pull-down; high values mean tight binding
# Settings: protein: recombinant; tags: His6-MBP; chain copies: 2; dsDNA, one strand shown
# Outline: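 Protein and DNA were mixed at 0.4 µM and 0.1 µM and held for 30 min at room temperature in Tris pH 7.5 buffer with NaCl and MgCl2; the protein was a His6-MBP-tagged, N-terminally truncated mouse FoxP3 or FoxP1 fragment from E. coli, and the DNA a Klenow-filled double-stranded degenerate library. Amylose resin captured the complexes, which were washed three times. Binding is read as reads-per-million enrichment of pull-down versus input after Illumina sequencing, with replicates pooled.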
row,Sequence,binding signal
1,GATGATTGTTCTCCCAGCTGATGAATTGGCGGCATCGAGTAAACAAATTTTCCTAATCTTTCTGTTCAAGCGCCATCTAC,1.08 RPM ratio (pull-down/input)
2,GATGATTGTTCTCCCAGCTGATGAATTAAGGATATCGAGTAAACAAATTTTCCTAATCTTTCTGTTCAAGCGCCATCTAC,0.989 RPM ratio (pull-down/input)
3,GATGATTGTTCTCCCAGCTGATGAATTGATTTACTCGAGTAAACAAATTTTCCTAATCTTTCTGTTCAAGCGCCATCTAC,1.25 RPM ratio (pull-down/input)
4,GATGATTGTTCTCCCAGCTGATGAATTACCACCCTCGAGTAAACAAATTTTCCTAATCTTTCTGTTCAAGCGCCATCTAC,0.889 RPM ratio (pull-down/input)
5,GATGATTGTTCTCCCAGCTGATGAATTCAGTAGCTCGAGTAAACAAATTTTCCTAATCTTTCTGTTCAAGCGCCATCTAC,0.872 RPM ratio (pull-down/input)
6,GATGATTGTTCTCCCAGCTGATGAATTTTTTGACTCGAGTAAACAAATTTTCCTAATCTTTCTGTTCAAGCGCCATCTAC,0.935 RPM ratio (pull-down/input)
7,GATGATTGTTCTCCCAGCTGATGAATTACTGGATTCGAGTAAACAAATTTTCCTAATCTTTCTGTTCAAGCGCCATCTAC,1.07 RPM ratio (pull-down/input)
8,GATGATTGTTCTCCCAGCTGATGAATTGTGATGGTCGAGTAAACAAATTTTCCTAATCTTTCTGTTCAAGCGCCATCTAC,1.16 RPM ratio (pull-down/input)
9,GATGATTGTTCTCCCAGCTGATGAATTCGGAGTATCGAGTAAACAAATTTTCCTAATCTTTCTGTTCAAGCGCCATCTAC,0.921 RPM ratio (pull-down/input)
10,GATGATTGTTCTCCCAGCTGATGAATTCCGCAATTCGAGTAAACAAATTTTCCTAATCTTTCTGTTCAAGCGCCATCTAC,0.961 RPM ratio (pull-down/input)
11,GATGATTGTTCTCCCAGCTGATGAATTTGGCCGATCGAGTAAACAAATTTTCCTAATCTTTCTGTTCAAGCGCCATCTAC,0.872 RPM ratio (pull-down/input)
12,GATGATTGTTCTCCCAGCTGATGAATTCAGTCAATCGAGTAAACAAATTTTCCTAATCTTTCTGTTCAAGCGCCATCTAC,1.12 RPM ratio (pull-down/input)
13,GATGATTGTTCTCCCAGCTGATGAATTGGTAACCTCGAGTAAACAAATTTTCCTAATCTTTCTGTTCAAGCGCCATCTAC,0.912 RPM ratio (pull-down/input)
14,GATGATTGTTCTCCCAGCTGATGAATTCACCAGTTCGAGTAAACAAATTTTCCTAATCTTTCTGTTCAAGCGCCATCTAC,0.884 RPM ratio (pull-down/input)
15,GATGATTGTTCTCCCAGCTGATGAATTTATGGGATCGAGTAAACAAATTTTCCTAATCTTTCTGTTCAAGCGCCATCTAC,0.919 RPM ratio (pull-down/input)
16,GATGATTGTTCTCCCAGCTGATGAATTCAACAAATCGAGTAAACAAATTTTCCTAATCTTTCTGTTCAAGCGCCATCTAC,1.29 RPM ratio (pull-down/input)
17,GATGATTGTTCTCCCAGCTGATGAATTTAGCTTTTCGAGTAAACAAATTTTCCTAATCTTTCTGTTCAAGCGCCATCTAC,1.06 RPM ratio (pull-down/input)
18,GATGATTGTTCTCCCAGCTGATGAATTTGTAACGTCGAGTAAACAAATTTTCCTAATCTTTCTGTTCAAGCGCCATCTAC,1.18 RPM ratio (pull-down/input)
19,GATGATTGTTCTCCCAGCTGATGAATTCTGGTAGTCGAGTAAACAAATTTTCCTAATCTTTCTGTTCAAGCGCCATCTAC,0.945 RPM ratio (pull-down/input)
20,GATGATTGTTCTCCCAGCTGATGAATTGAAAATTTCGAGTAAACAAATTTTCCTAATCTTTCTGTTCAAGCGCCATCTAC,0.888 RPM ratio (pull-down/input)
21,GATGATTGTTCTCCCAGCTGATGAATTGACTTGGTCGAGTAAACAAATTTTCCTAATCTTTCTGTTCAAGCGCCATCTAC,0.938 RPM ratio (pull-down/input)

row,Sequence,binding signal
1,GATGATTGTTCTCCCAGCTGATGAATTGGCCCACTCGAGTAAACAAATTTTCCTAATCTTTCTGTTCAAGCGCCATCTAC,0.8 RPM ratio (pull-down/input)
2,GATGATTGTTCTCCCAGCTGATGAATTTCTTGCATCGAGTAAACAAATTTTCCTAATCTTTCTGTTCAAGCGCCATCTAC,1.27 RPM ratio (pull-down/input)
3,GATGATTGTTCTCCCAGCTGATGAATTGGAGTTTTCGAGTAAACAAATTTTCCTAATCTTTCTGTTCAAGCGCCATCTAC,1.1 RPM ratio (pull-down/input)
4,GATGATTGTTCTCCCAGCTGATGAATTCAGCCAGTCGAGTAAACAAATTTTCCTAATCTTTCTGTTCAAGCGCCATCTAC,0.768 RPM ratio (pull-down/input)
5,GATGATTGTTCTCCCAGCTGATGAATTGTGCTAATCGAGTAAACAAATTTTCCTAATCTTTCTGTTCAAGCGCCATCTAC,1.16 RPM ratio (pull-down/input)
6,GATGATTGTTCTCCCAGCTGATGAATTACCTCTCTCGAGTAAACAAATTTTCCTAATCTTTCTGTTCAAGCGCCATCTAC,0.905 RPM ratio (pull-down/input)
7,GATGATTGTTCTCCCAGCTGATGAATTAGTTACTTCGAGTAAACAAATTTTCCTAATCTTTCTGTTCAAGCGCCATCTAC,1.07 RPM ratio (pull-down/input)
8,GATGATTGTTCTCCCAGCTGATGAATTCGAGTGCTCGAGTAAACAAATTTTCCTAATCTTTCTGTTCAAGCGCCATCTAC,0.859 RPM ratio (pull-down/input)
9,GATGATTGTTCTCCCAGCTGATGAATTCTCGCAGTCGAGTAAACAAATTTTCCTAATCTTTCTGTTCAAGCGCCATCTAC,0.829 RPM ratio (pull-down/input)
10,GATGATTGTTCTCCCAGCTGATGAATTTAGGCTTTCGAGTAAACAAATTTTCCTAATCTTTCTGTTCAAGCGCCATCTAC,1.1 RPM ratio (pull-down/input)
11,GATGATTGTTCTCCCAGCTGATGAATTAGACTAATCGAGTAAACAAATTTTCCTAATCTTTCTGTTCAAGCGCCATCTAC,1.08 RPM ratio (pull-down/input)
12,GATGATTGTTCTCCCAGCTGATGAATTCTCCAAGTCGAGTAAACAAATTTTCCTAATCTTTCTGTTCAAGCGCCATCTAC,0.773 RPM ratio (pull-down/input)
13,GATGATTGTTCTCCCAGCTGATGAATTTTTAGTATCGAGTAAACAAATTTTCCTAATCTTTCTGTTCAAGCGCCATCTAC,1.02 RPM ratio (pull-down/input)
14,GATGATTGTTCTCCCAGCTGATGAATTGCGCCCTTCGAGTAAACAAATTTTCCTAATCTTTCTGTTCAAGCGCCATCTAC,1.03 RPM ratio (pull-down/input)
15,GATGATTGTTCTCCCAGCTGATGAATTATATCAATCGAGTAAACAAATTTTCCTAATCTTTCTGTTCAAGCGCCATCTAC,1.16 RPM ratio (pull-down/input)
16,GATGATTGTTCTCCCAGCTGATGAATTTGCGGTATCGAGTAAACAAATTTTCCTAATCTTTCTGTTCAAGCGCCATCTAC,1 RPM ratio (pull-down/input)
17,GATGATTGTTCTCCCAGCTGATGAATTCGTAAAATCGAGTAAACAAATTTTCCTAATCTTTCTGTTCAAGCGCCATCTAC,1.04 RPM ratio (pull-down/input)
18,GATGATTGTTCTCCCAGCTGATGAATTCACAGACTCGAGTAAACAAATTTTCCTAATCTTTCTGTTCAAGCGCCATCTAC,0.819 RPM ratio (pull-down/input)
19,GATGATTGTTCTCCCAGCTGATGAATTTCGCGTGTCGAGTAAACAAATTTTCCTAATCTTTCTGTTCAAGCGCCATCTAC,0.956 RPM ratio (pull-down/input)
20,GATGATTGTTCTCCCAGCTGATGAATTTTAGCCCTCGAGTAAACAAATTTTCCTAATCTTTCTGTTCAAGCGCCATCTAC,0.826 RPM ratio (pull-down/input)
21,GATGATTGTTCTCCCAGCTGATGAATTAGTCAGATCGAGTAAACAAATTTTCCTAATCTTTCTGTTCAAGCGCCATCTAC,0.974 RPM ratio (pull-down/input)

row,Sequence,binding signal
1,GATGATTGTTCTCCCAGCTGATGAATTTCATTGTTCGAGTAAACAAATTTTCCTAATCTTTCTGTTCAAGCGCCATCTAC,1 RPM ratio (pull-down/input)
2,GATGATTGTTCTCCCAGCTGATGAATTCAATCCTTCGAGTAAACAAATTTTCCTAATCTTTCTGTTCAAGCGCCATCTAC,0.908 RPM ratio (pull-down/input)
3,GATGATTGTTCTCCCAGCTGATGAATTATCCACATCGAGTAAACAAATTTTCCTAATCTTTCTGTTCAAGCGCCATCTAC,1.05 RPM ratio (pull-down/input)
4,GATGATTGTTCTCCCAGCTGATGAATTGCCCTAGTCGAGTAAACAAATTTTCCTAATCTTTCTGTTCAAGCGCCATCTAC,0.836 RPM ratio (pull-down/input)
5,GATGATTGTTCTCCCAGCTGATGAATTTTGAGCCTCGAGTAAACAAATTTTCCTAATCTTTCTGTTCAAGCGCCATCTAC,0.819 RPM ratio (pull-down/input)
6,GATGATTGTTCTCCCAGCTGATGAATTGCAATATTCGAGTAAACAAATTTTCCTAATCTTTCTGTTCAAGCGCCATCTAC,1.56 RPM ratio (pull-down/input)
7,GATGATTGTTCTCCCAGCTGATGAATTGATAGCCTCGAGTAAACAAATTTTCCTAATCTTTCTGTTCAAGCGCCATCTAC,0.916 RPM ratio (pull-down/input)
8,GATGATTGTTCTCCCAGCTGATGAATTAGCACAATCGAGTAAACAAATTTTCCTAATCTTTCTGTTCAAGCGCCATCTAC,1.33 RPM ratio (pull-down/input)
9,GATGATTGTTCTCCCAGCTGATGAATTCTTGTCCTCGAGTAAACAAATTTTCCTAATCTTTCTGTTCAAGCGCCATCTAC,0.882 RPM ratio (pull-down/input)
10,GATGATTGTTCTCCCAGCTGATGAATTTCTTAACTCGAGTAAACAAATTTTCCTAATCTTTCTGTTCAAGCGCCATCTAC,0.949 RPM ratio (pull-down/input)
11,GATGATTGTTCTCCCAGCTGATGAATTCGCCGGCTCGAGTAAACAAATTTTCCTAATCTTTCTGTTCAAGCGCCATCTAC,0.748 RPM ratio (pull-down/input)
12,GATGATTGTTCTCCCAGCTGATGAATTGGCTGCATCGAGTAAACAAATTTTCCTAATCTTTCTGTTCAAGCGCCATCTAC,1.07 RPM ratio (pull-down/input)
13,GATGATTGTTCTCCCAGCTGATGAATTACTCTCATCGAGTAAACAAATTTTCCTAATCTTTCTGTTCAAGCGCCATCTAC,1.03 RPM ratio (pull-down/input)
14,GATGATTGTTCTCCCAGCTGATGAATTCTCATTGTCGAGTAAACAAATTTTCCTAATCTTTCTGTTCAAGCGCCATCTAC,1.01 RPM ratio (pull-down/input)
15,GATGATTGTTCTCCCAGCTGATGAATTTGAAACTTCGAGTAAACAAATTTTCCTAATCTTTCTGTTCAAGCGCCATCTAC,0.864 RPM ratio (pull-down/input)
16,GATGATTGTTCTCCCAGCTGATGAATTCATTGACTCGAGTAAACAAATTTTCCTAATCTTTCTGTTCAAGCGCCATCTAC,0.932 RPM ratio (pull-down/input)
17,GATGATTGTTCTCCCAGCTGATGAATTTTCTCTCTCGAGTAAACAAATTTTCCTAATCTTTCTGTTCAAGCGCCATCTAC,0.904 RPM ratio (pull-down/input)
18,GATGATTGTTCTCCCAGCTGATGAATTCAGAATCTCGAGTAAACAAATTTTCCTAATCTTTCTGTTCAAGCGCCATCTAC,0.824 RPM ratio (pull-down/input)
19,GATGATTGTTCTCCCAGCTGATGAATTTGGGCGTTCGAGTAAACAAATTTTCCTAATCTTTCTGTTCAAGCGCCATCTAC,0.922 RPM ratio (pull-down/input)
20,GATGATTGTTCTCCCAGCTGATGAATTGCCACAGTCGAGTAAACAAATTTTCCTAATCTTTCTGTTCAAGCGCCATCTAC,0.983 RPM ratio (pull-down/input)
21,GATGATTGTTCTCCCAGCTGATGAATTTACTTTATCGAGTAAACAAATTTTCCTAATCTTTCTGTTCAAGCGCCATCTAC,1.46 RPM ratio (pull-down/input)
